Measurements reported in a melting point compilation (Tetko et al.; mined from patent text by program, amines drawn as free bases though some values may be those of a salt).

Compound CC(C)c1nc(COCCO)n(C)c1Sc1cc(Cl)cc(Cl)c1 has a melting point of 89 to 90 °C.
